From PubChem BioAssay AID504832 (National Center for Advancing Translational Sciences (NCATS), 2011)
In all, about 310,000 compounds went through this assay and about 18,000 (5.8%) were called active. The inconclusive results got no clear call from the source; some entries with a clear call stand among them for comparison. Calls follow the shape of the dose curve; as a rule, active = well fitted inhibition curve with a large enough effect; inconclusive = small, poorly fitted or top-dose-only effect, or another doubt; inactive = no such curve, though single readings can be large or run the other way. Potencies of inconclusive entries are left out as doubtful fits.

Assay: Primary qHTS for delayed death inhibitors of the malarial parasite plastid, 48 hour incubation
Conditions: P. falciparum luciferase growth in erythrocytes; series mostly up to 28.7 µM
Summary of the method: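 In quantitative HTS format, infected erythrocytes bearing luciferase-reporter parasites were treated for a single generation at 37 C. Luminescence after adding detection reagent served as the growth measure.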
Potency is read from the fitted curve at half-maximal effect; tags tell the direction and shape of the fitted curve.

SMILES | Potency
CCOc1ccccc1-c1nc(-c2ccc(NC(=O)c3ccc(Br)o3)cc2)no1 | active: 2.94 µM
OCCNc1nc(-c2ccccc2)nc2ccccc12 | inactive
C=Cc1c(C)/c2[n-]/c1=C\c1[n-]c(c(CC)c1C)/C=c1\[n-]c3c(c1C)C(=O)C(C(=O)[O-])C=3c1[n-]c(c(C)c1CCC(=O)[O-])\C=2.[Cu].[Na+].[Na+] (centres undefined) | inconclusive [inhibitor, single point]
COc1ccc(C(C[N+](=O)[O-])c2c(C)cc3ccccn23)c(OC)c1 (centres undefined) | inconclusive [inhibitor, partial curve]
CC(CC(=O)NCCc1ccc(F)cc1)c1ccccc1 (centres undefined) | inactive
O=c1c(Cc2ccc(F)cc2)c(O)ccn1Cc1ccc(Cl)cc1Cl | inconclusive [inhibitor, single point]
Cc1cc(C)c(S(=O)(=O)N2CCCOC2CNC(=O)C(=O)NCc2ccccn2)c(C)c1 (centres undefined) | inconclusive [inhibitor, partial curve, poor fit]
COc1ccc(/C=C/C(=O)Oc2ccc(C)c(C)c2)cc1OC | inconclusive [inhibitor, full curve]
Cc1sc(NC(=O)CSc2nnnn2C2CCCCC2)c(C#N)c1C | inactive
CC(C)CCc1noc(CN(C)CCC2CCOCC2)n1 | inactive
COCC(C)NC(=O)Cc1ccc(Cl)cc1 (centres undefined) | inactive
O=C(NCc1cccnc1)c1ccc(NS(=O)(=O)c2ccc(F)cc2)cc1 | inconclusive [inhibitor, single point]
COC(=O)c1cc(S(=O)(=O)N2CCCCC2)ccc1N1CCOCC1 | inconclusive [inhibitor, single point]
CCOC(=O)c1c(C)oc2c1cc(O)c1ccccc12 | inactive
CCN(CC)S(=O)(=O)c1cccc(NC(=O)CNc2cccc(S(=O)(=O)N3CCOCC3)c2)c1 | inconclusive [inhibitor, partial curve]
O=C(Nc1ccc(F)cc1)c1ccc2c(=O)n(CC3CCCO3)c(=S)[nH]c2c1 (centres undefined) | inconclusive [inhibitor, partial curve, poor fit]
Cc1cccc(C(=O)Nc2ccc(S(=O)(=O)Nc3nc(C)cc(C)n3)cc2)c1 | inactive
COc1cc(S(=O)(=O)Nc2cccc3cn[nH]c23)c(OC)cc1Cl | inactive
COc1cc(NC(=O)CN2CCN(S(=O)(=O)/C=C/c3ccccc3)CC2)cc(OC)c1OC | inconclusive [inhibitor, partial curve]
COc1ccc(NC(=S)NC(C)C(c2ccccc2)N2CCOCC2)cc1 (centres undefined) | inconclusive [inhibitor, single point]
CN(Cc1ccccc1)C(=S)NC(=O)C1CCCCC1 | inactive
COc1ccccc1S(=O)(=O)Cc1ccc(C(=O)N2CCN(c3ccccc3)CC2)o1 | inconclusive [inhibitor, single point]
CSCCC(NC(=O)c1cc(S(=O)(=O)N2CCOCC2)ccc1F)c1nc2ccccc2[nH]1 (centres undefined) | inconclusive [inhibitor, single point]

SMILES | Potency
C/C(=N\N=C(N)N)c1ccc(Cl)cc1Cl | inactive
C/C(=N\NC(=O)CCC(=O)Nc1ccc(C)c(C)c1)c1cccs1 | inactive
O=C(NC12CC3CC(CC(C3)C1)C2)OC1CN2CCC1CC2 (centres undefined) | inactive
Cc1nnc(NC(=O)CSC2=NN3CCCC(=O)N=C3S2)s1 | inconclusive [inhibitor, partial curve, poor fit]
C=CCc1ccc(OCCOCCOc2cccc3cccnc23)c(OC)c1 | inconclusive [inhibitor, single point]
NC(=O)NC(=O)COC(=O)CN1C(=O)C2CCCCC2C1=O (centres undefined) | inactive
COC(=O)c1ccc2c(=O)n(CCN3CCOCC3)c(SCC(=O)NCc3ccccc3)nc2c1 | inconclusive [inhibitor, single point]
O=C(NCC(c1ccco1)N1CCCC1)c1cccc(NS(=O)(=O)c2ccc(Br)cc2)c1 (centres undefined) | inconclusive [inhibitor, single point]
Cc1cc2cc(CCNC(=O)CCc3ccccc3)c(=O)[nH]c2cc1C | inconclusive [inhibitor, full curve, poor fit]
Cc1cnc(NC(=O)COc2ccccc2)s1 | inactive
CCc1ccc(NC(=O)Cn2nc(C(=O)O)c3ccccc3c2=O)cc1 | inactive
CN(C)CCCN(C(=O)c1ccc(S(=O)(=O)N2CCc3ccccc3C2)cc1)c1nc2ccc(F)cc2s1 | active: 13.1 µM
CCCCCC(O)(c1ccc(OCC)cc1)C(CN1CCOCC1)c1ccccc1 (centres undefined) | active: 2.08 µM
CCCC1=C(C(=O)OCC)C(c2ccc(OC)c(CSc3ccccn3)c2)C(C#N)=C(N)O1 (centres undefined) | active: 9.28 µM
CCN(CC)c1ccc(S(=O)(=O)N(CC)CC)cc1NC(=O)c1cccnc1 | inconclusive [inhibitor, single point]
O=C(Nc1ccc(N2CCN(C(=O)c3ccccc3F)CC2)cc1)c1cncc(Br)c1 | inconclusive [inhibitor, partial curve]
O=C(NC1CCSc2ccccc21)c1cc(S(=O)(=O)N2CCOCC2)ccc1Cl (centres undefined) | inconclusive [inhibitor, single point]
CC(=O)c1cccc(NS(=O)(=O)N2CCOCC2)c1 | inactive
Cc1cc(C(=O)C(C)OC(=O)c2ccc(NC(=O)CC#N)cc2)c(C)n1-c1ccccc1 (centres undefined) | active: 13.1 µM
Cc1ccc(C)c(N(C(=O)c2ccco2)C(C(=O)NC2CCCC2)c2ccco2)c1 (centres undefined) | inconclusive [inhibitor, partial curve, poor fit]
O=C(COc1ccc(Cl)cc1)NCCS(=O)(=O)N1CCN(c2ccc(F)cc2)CC1 | inactive
CCOc1ccccc1NC(=O)CC1(CC(=O)N2CCOCC2)CCCC1 | inconclusive [inhibitor, full curve, poor fit]
COc1ccc(C)cc1NC(=O)C1CCCN(S(=O)(=O)c2cccc3cccnc23)C1 (centres undefined) | inconclusive [inhibitor, single point]

SMILES | Potency
COc1ccc(C(C)(C)C)cc1NC(=O)Cn1cnnn1 | inconclusive [inhibitor, single point]
Cc1ccc(C(C(=O)NC2CCCC2)N(C(=O)Cc2cccs2)c2ccc(C)c(C)c2)o1 (centres undefined) | active: 10.4 µM
COc1cccc(OC)c1C1=CC(=O)C[C@H](c2ccc3c(c2)OCO3)C1 | inconclusive [inhibitor, partial curve, poor fit]
CCOc1ccccc1NC(=O)C(Sc1ccccc1)c1ccccc1 (centres undefined) | inconclusive [inhibitor, single point]
CCCCn1c(CCC(=O)O)nc2cc(S(=O)(=O)N(CC)CC)ccc21 | inconclusive [inhibitor, single point]
CCCCn1c(N)c(N(CC(C)C)C(=O)CCC2CCCCC2)c(=O)[nH]c1=O | inconclusive [inhibitor, full curve]
Cc1ccc(-c2noc(CN(C(=O)CCCCCN3C(=O)c4ccccc4C3=O)C(C)C)n2)cc1 | inconclusive [inhibitor, single point]
COc1ccc(/C=C/C(=O)Nc2cc(S(=O)(=O)N3CCOCC3)ccc2N2CCCC2)cc1OC | inconclusive [inhibitor, partial curve, poor fit]
COc1ccc(C(C(=O)NCC2CCCO2)N(C(=O)c2snc(C(N)=O)c2N)c2ccccc2)cc1OC (centres undefined) | inconclusive [inhibitor, single point]
Brc1cc(Cc2nnc(-c3ccccc3)o2)c(Br)s1 | inconclusive [inhibitor, partial curve, poor fit]
O=C(CSc1nnc2c(n1)[nH]c1ccccc12)Nc1nncs1 | inactive
Cc1ccc(C)c(NC(=O)C2CCCN2S(=O)(=O)c2ccc3c(c2)n(C)c(=O)c(=O)n3C)c1 (centres undefined) | inactive
COC(=O)Cc1c(C)c2ccc(O)c(CNCc3ccc(OC)c(OC)c3)c2oc1=O | inconclusive [inhibitor, single point]
CCOC(=O)NNS(=O)(=O)c1cc(Br)ccc1Br | inactive
COC(=O)c1ccc(CSc2nnc(-c3c[nH]c4ccccc34)n2-c2ccccc2)cc1 | inconclusive [inhibitor, single point]
COc1ccc(N2CC(C(=O)Nc3ccncc3)CC2=O)cc1 (centres undefined) | inactive
COc1ccc(-c2nc(CN3CCCCC3c3nccn3C)c(C)o2)c(C)c1C (centres undefined) | inconclusive [inhibitor, full curve]
CC(C)C1N(C(=O)CN2CCCC2)CCN1S(=O)(=O)c1ccccc1 (centres undefined) | inconclusive [inhibitor, partial curve]
CCOC(=O)C(Oc1ccc(=O)n(-c2ccccc2)n1)C(C)=O (centres undefined) | inconclusive [inhibitor, partial curve, poor fit]
Brc1ccc(Nc2c3c(nc4ncnn24)CCC3)cc1 | active: 0.586 µM
Cc1cccn2c(CN[C@H]3CCCCNC3=O)c(C(=O)N3CCOCC3)nc12 | inactive
CCOC(=O)C1CCN(C(=O)c2cc3cc(Cl)ccc3[nH]2)CC1 | inconclusive [inhibitor, single point]
O=C(CSc1nnc2ccc(-c3ccc(F)cc3)nn12)NCC1CCCO1 (centres undefined) | inconclusive [inhibitor, single point]
